Variants at the floor of the assay are shown more often than the library holds them.
B1: TPR 5TU (parent)
chain: GGAUCUUCUCGAUCUAACAAAAAAGACAAAUCUGCCACAAAGCUUGAGAGCAUCUUCGGAUGCAGAGGCGGCAGCCUUCGGUGGCGCGAUAGCGCCAACGUUCUCAACUAUGACACGCAAAACGCGUGCUCCGUUGAAUGGAGUUUAUCAUG

Variants of: B1
Assay: polymerase ribozyme fitness, log enrichment relative to wild type (log ratio); higher = more active; in vitro selection for triplet polymerase activity
Procedure, shortened: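 Mutant libraries of each subunit of a heterodimeric triplet polymerase ribozyme were built by PCR and transcribed. Each library went through one round of in vitro selection in triplicate: annealing with biotinylated primer, partner subunit and triplets, frozen incubation at −7 °C, gel excision of extended constructs, streptavidin-bead capture and RT-PCR. Input and output libraries were Illumina-sequenced; only genotypes with ≥10 input reads and ≥1 read per output were kept. Fitness is log2(genotype enrichment/wild-type enrichment), using inverse-variance-weighted replicate averages.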

GGAUCUUCUCGAUCUAACAAAAAAGACAAAUCUGCCACUAAGCUUGAGAGCAUCUUCGGAUGCAGAAGCGGCAGCCUUCGGUGGCGCGAUAGCGCCGACGUUCUCAACUAUGACACGCAAAACGCGUACUCCGUUGAAUGGAGUUUACCAUG [A39U G67A A97G G128A U148C] and GGAUCUUCUCGAUCUAACAAAAAAGACAAAUCUGCCACUAAGCUUGAGAGCAUCUUCGGAUGCAGAGGCGGCAGCCUUCGGUGGGGCGAUAGCGCAAACGUUCUCAGCUAUGACACGCAAAACGCGUGCUCCGUUGAAUGGAGUUUAUCAUG [A39U C85G C96A A107G] cannot be ordered by “polymerase ribozyme fitness (log ratio)” value: at most -4.2 for the first, at most -4.2 for the second.

GGAUCUUCUCGAUCUAACAAAAAAGACAAAUCUGCCACUAAGCUUGAGAGCAUCUUCGGAUGCAGAGGCGGCAGCCUUCGGUGGCGGGAUAGCGCCAACGUUCUCAAUUAUGACACGCAAAACGGGGGCUCCGUUGAAUGGAGUUUAUCAUG [A39U C87G C108U C125G U127G] and GGAUCUUCUCGAUCUAACAAAAAAGACAAAUCUGCCACUAAGCUUGAGAGCAUCUUCGGAUGCAGAGGCGGAAGCCUUCGGUAGCGCGAUAGCGCCAACGUUCUCAACUAUGACACGCAAAACGCGUGCUCCGUUGUAUGGAGUUUAUCAUG [A39U C72A G83A A137U] cannot be ordered by “polymerase ribozyme fitness (log ratio)” value: at most -4.2 for the first, at most -4.2 for the second.

First: GGAUCUUCUCGAUCUAACAAAAAAGACAAAUCUGCCACUAAGCUUGAGAGCAUUUUCGGAUGCAGAGGCGGCAGCCUUCGGUGGCGCGAUAGCGCAAACGUUCUCAACUAUGACACGCAAAACGCGUGCUCCGUUGAAUGGAGUUUAUCAUG [A39U C54U C96A]
Second: GGAUCUUCUCGAUCUAACAAAAAAGACAAAUCUGCCACUAAGCUUGAGAGCAUUGUCGGAUGCAGAGGCGGCAGCCUUCGGUGGCGCGAUAGUGCCAACGUUUUCAACUAUGACACGCAAAACGCGUGCUCCGUUGAAUGGAGUUUAUCAUG [A39U C54U U55G C93U C103U]
The “polymerase ribozyme fitness (log ratio)” value of the first is higher: -2.72 for the first, at most -4.2 for the second.

Compared with GGAUCUUCUCGAUCUAACAAAAAAGACAAAUCUGCCACUAAGCUUGAGAGCAUCUUCGGAUGCAGAGGCGGCAGCCUUCGGUGGCGCGAUACCGCCAACGUUCUCAACUAUGACACGCAAAACGCGAGCUCCGUUGAAUGGAGUUUAUCAUG [A39U G92C U127A], GGAUCUUCUCGAUCUAACAAAAAAGACAAAUCUGCCACUAAGCUUGAGAGCAUCUUCGGAUGCAGAGGCGGCAGCCUUCGGUGGCGCGAUAGCGCCAACGUUCUCAACUAUGACACUCAAAACGCGUGCUCCGUUGAAUGGAGUUUAUCAUG [A39U G117U] is higher in “polymerase ribozyme fitness (log ratio)” value: at most -4.2 for the first, -1.04 for the second.

GGAUCUUCUCGAUCUAACAAAAAAGACAAAUCUGCCACUAAGCUUGAAAGCAUCUUCGGAUGCAGAGGCGGCAGCCUUCGGUGGCGCGAUAGAGCCAACGUUCUCAACUAUGACACGCAAAACGCGUGCUCCGUUGAAUGGAGUUUAUCAUG [A39U G48A C93A] and GGAUCUUCUCGAUCUAACAAAAAAGACAAAUCUGCCACUAAGCUUGAGAGCAUCUUCGGAUGCAGAGGCGCCAGCCUUCGGUGACGCGAUAGCGCCAACGUUUUCAACUAUGACACGCAAAACGCGUGCUCCGUUGAAUGGAGUUUAUCAUG [A39U G71C G84A C103U] cannot be ordered by “polymerase ribozyme fitness (log ratio)” value: at most -4.2 for the first, at most -4.2 for the second.

GGAUCUUCUCGAUCUAACAAAAAAGACAAAUCUGCCACUAAGCUUGAGAGCAUCUUCGGAUGCAGAGGCGGCAGCCUUCGGUGUCGCGAUUGCGCCAACGUUCUCAACUAUGACACGCAAAACGCGUGCUCCGUUGAAUGGAGUUUAUCACG [A39U G84U A91U U151C] and GGAUCUUCUCGAUCUAACAAAAAAGACAAAUCUGCCACUAAGCUUGAGAGCAUCUUCGGAUGCAGAGGCGGCAGCCUUGGGUGUCGCGAUAGCGCCAACGUUCUCAACUAUGACACGCAAAACGCGUGCUCCGUUGAAUGGAGUUUAUCAUG [A39U C79G G84U] cannot be ordered by “polymerase ribozyme fitness (log ratio)” value: at most -4.2 for the first, at most -4.2 for the second.

Going from GGAUCUUCUCGAUCUAACAAAAAAGACAAAUCUGCCACUAAGCUUGAGAGCAUCUUCGGAUGCAGAGGCGGCAGCCUUCGGUGGCGCGAUAGCGUAAACGUUCUCAACUAUGACACGCAAAACACGUGCUCCGUUGAAUGGAGUUUAUCAUG [A39U C95U C96A G124A] to GGAUCUUCUCGAUCUAACAAAAAAGACAAAUCUGCCACUAAGCUUGAGAGCAUCUUCGGAUGCAGAGGCGGCAGCCUUCGGUGGCGCGAUAGCGCGAACGUUCUCAACUAUGACACGCAAAACGCGUGCUCCGUUGAAUGGAGUUUAUCAUG [A39U C96G], the “polymerase ribozyme fitness (log ratio)” value rises from -3.2 to -2.11.

First: GGAUCUUCUCGAUCUAACAAAAAAGACAAAUCUGCCACUAAGCUUGAGAGCAUCUUCGGAUGCAGAGGCGGCAGCCUUCGGUGGCGCGAUAGCGCAAACGUUCUCAACUAUGACACGCAAAACGCGUGCUCCGUUGAAUGGAGUUUAUCAUG [A39U C96A]
Second: GGAUCUUCUCGAUCUAACAAAAAAGACAAAUCUGCCACUAAGCUUGAGAGCAUCUUCGCAUGCAGAGGCGGCAGCCUUCGGUUGCGCGAUAGCGCCAACGUUCUCAACUAUGACACGCAAAACGCGUGCUCCGUUGAAUGGAGUUUUUCAUG [A39U G59C G83U A147U]
The “polymerase ribozyme fitness (log ratio)” value of the first is lower: -2.81 for the first, -2.17 for the second.

First: GGAUCUUCUCGAUCUAACAAAAAAGACAAAUCUGCCACUAAGCUUGAGAGCAUCUUCGGAUGCAGAGGCGGCAGCCUUCGGUGGUGCGAUAGCGCCAACGUUCUCAACUAUGACACGCAAAACGCGUGCUCCGUUGAAUGGAGUUUAUCAUG [A39U C85U]
Second: GGAUCUUCUCGAUCUAACAAAAAAGACAAAUCUGCCACUAAGCUUGAGAGCAUCUUCGGAUGCAGAGGCGGCAGCAUUCGGUGGCCCGAUAGCGCCAACGUUCUCAACUAUGACACGCAAAACGCAUGCUCUGAUGAAUGGAGUUUAUCAUG [A39U C76A G86C G126A C132U U134A]
The “polymerase ribozyme fitness (log ratio)” value of the first is higher: -2.27 for the first, at most -4.2 for the second.

In the case of GGAUCUUCUCGAUCUAACAAAAAAGACAAAUCUGCCACUAAGCUUGAGAGCAUCUUCGGAUGCAGAGGCGGCAGCCUUCGGUGGCGCGAUAGAGACAACGUUCUCAACUAUGACACGCAAAACGCGUGAUCCGUUGAAUGGAGUUUAUCAUG [A39U C93A C95A C129A], the “polymerase ribozyme fitness (log ratio)” value is reported as at most -4.2.

— the RNAGym collection of RNA variant scans (doi:10.1073/pnas.2313332121)
